# Patent publication US20260139049A1 (published 2026)
# Changes are numbered by the printed parent chain.
# T1: mouse CLDN6 (mouse, UniProt Q9Z262 1-219)
# T1 chain: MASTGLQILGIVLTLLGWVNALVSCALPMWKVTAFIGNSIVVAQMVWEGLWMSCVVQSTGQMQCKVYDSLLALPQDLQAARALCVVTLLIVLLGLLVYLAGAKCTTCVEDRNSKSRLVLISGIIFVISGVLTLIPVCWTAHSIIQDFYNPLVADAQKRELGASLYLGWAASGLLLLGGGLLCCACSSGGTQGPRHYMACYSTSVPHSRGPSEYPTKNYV
# T2: monkey CLDN6 (Cyno CLDN6) (monkey (Cyno))
# T2 chain: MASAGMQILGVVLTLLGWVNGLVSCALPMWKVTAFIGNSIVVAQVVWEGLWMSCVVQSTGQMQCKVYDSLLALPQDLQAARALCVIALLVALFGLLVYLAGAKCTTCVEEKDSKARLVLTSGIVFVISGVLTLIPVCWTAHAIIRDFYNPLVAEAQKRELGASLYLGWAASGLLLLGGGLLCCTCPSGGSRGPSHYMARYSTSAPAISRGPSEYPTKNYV
# B1: PiH2008 (antibody)
# heavy: QVQLVQSGAEVKKPGASVKVSCKASGYTFTDYNMHWVRQAPGQSLEWIGYINPNNGATNYNQKFKGRATITVDKSASTAYMELSSLRSEDTAVYNCARWDGYVYYYGMDYWGQGTLVTVSS[human IgG1 constant region not spelt out]
# light: DIQMTQSPSSLSASVGGRVTITCKASDHINNWLAWYQQKPGKAPKLLISGATSLETGVPSRFSGSGSGTDYTFTISSLQPEDIATYYCQQYWNTPYTFGGGTKLEIKRTVAAPSVFIFPPSDEQLKSGTASVVCLLNNFYPREAKVQWKVDNALQSGNSQESVTEQDSKDSTYSLSSTLTLSKADYEKHKVYACEVTHQGLSSPVTKSFNRGEC
# B2: PiH2004 (antibody)
# heavy: B1 heavy
# light: B1 light with G17D
# Assays:
# mouse CLDN6 = target: T1, mouse CLDN6; experiment: FACS
# [1] = target: T2, monkey CLDN6 (Cyno CLDN6); experiment: FACS
Binder,EC50 (mouse CLDN6) [µg/mL],EC50 [1] [µg/mL]
B1,7.76,1.16
B2,19,1.32
